According to PubChem BioAssay AID624202 (National Center for Advancing Translational Sciences (NCATS), 2012):
In all, about 380,000 compounds went through this assay and about 4,000 (1.1%) were called active. Inconclusive means that the source gave no clear call. Such entries were picked first, then a sample of the others. Calls follow the shape of the dose curve; as a rule, active = well fitted activation curve with a large enough effect; inconclusive = small, poorly fitted or top-dose-only effect; inactive = no such curve, though single readings can be large or run the other way. Potencies of inconclusive entries are doubtful fits and often do not repeat.

Test: qHTS Assay to Identify Small Molecule Activators of BRCA1 Expression; also: nearly all actives have a fitted effect of over 80% in size
Details: MCF7-BRCA1-FFLuc reporter, luminescence, 48 h; activation: at 46.1 µM (top of the series), scaled: vehicle 0%, 10 µM genistein 100% unless noted
In short: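 First, MCF7-BRCA1-FFLuc cells (2000/well) attach for 2 h; next, compounds are pin-added and incubated 48 h at 37 °C; finally, luciferase reagent is added and luminescence read after 15 min.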
Potency is read from the fitted curve at half-maximal effect; tags tell the direction and shape of the fitted curve.

SMILES	Potency	activation
CNS(=O)(=O)c1ccc(NC(=O)c2ccccn2)cc1	inconclusive: 10 µM [activator, partial curve, poor fit]	–
Cc1ccc(C)c(NC(=O)c2cc(-c3cc(C)ccc3O)n[nH]2)c1	inconclusive: 0.501 µM [activator, full curve, poor fit]	–
Cc1cc(-n2c(C)cc(C(=O)COc3ccc(F)c(F)c3)c2C)no1	inconclusive: 11.2 µM [activator, partial curve, poor fit]	–
O=C(CSc1nc2ccccc2s1)N1CCCCC1	inconclusive: 5.01 µM [activator, full curve, poor fit]	–
O=C(NCCO)c1ccc2c3n(nc2c1)-c1ccccc1CO3	inconclusive: 1.26 µM [activator, partial curve, poor fit]	–
CC1CCc2sc(C(=O)NCc3ccccn3)cc2C1 (stereo not given)	active: 11.2 µM	–
c1ccc(CSc2nnc(-c3cccs3)o2)cc1	inconclusive: 12.6 µM [activator, partial curve, poor fit]	–
Cc1csc2c(N3CCCCC3)ncnc12	active: 11.2 µM	–
O=C(Nc1ccc2nn(-c3ccccc3)nc2c1)c1cccnc1	inconclusive: 15.8 µM [activator, partial curve, poor fit]	–
Cc1ccc(NC(=O)O/N=C/c2ccc(F)cc2)cc1	inconclusive: 12.6 µM [activator, partial curve, poor fit]	–
Cc1ccc(NC(=O)C(=O)NCc2ccco2)c(C)c1	inconclusive: 20 µM [activator, single point]	–
S=C(Nc1ccc(Br)cc1)NC1CCN(Cc2ccccc2)CC1	inactive	–
O=C(Cn1cc(C(F)(F)F)cc(Cl)c1=O)NCc1ccccc1	inconclusive: 14.1 µM [activator, partial curve, poor fit]	–
CCOC(=O)c1c(NC(=O)CN2CCN(C)CC2)sc(C(=O)Nc2ccccc2)c1C	inconclusive: 10 µM [activator, partial curve, poor fit]	–
CCOC(=O)N/C(N)=N/c1nc2ccccc2s1	–	inconclusive: 127% [activator] [at 1.84 µM, scaled: vehicle 0%, 10 µM genistein 100%]
Cc1cccc(C(=O)O/N=C(\N)c2cccc([N+](=O)[O-])c2)c1	inconclusive: 7.94 µM [activator, partial curve, poor fit]	–
O=C(c1ccco1)N1CCN(C(=O)N2c3ccccc3Sc3ccccc32)CC1	–	inconclusive: -82.4% [activator]
CNc1cncc(-c2cnn(CC(C)C)c2)n1	inconclusive: 12.6 µM [activator, partial curve, poor fit]	–
Cc1ccc(SCc2nc(-c3ccccn3)no2)cc1	active: 5.01 µM	–
COc1c(C)cccc1C(=O)Nc1ccc(CN2CCOCC2)cc1	active: 2.51 µM	–
OCC1OC(n2ccc3c(SCc4ccccc4)ncnc32)C(O)C1O (stereo not given)	inconclusive: 7.94 µM [activator, partial curve, poor fit]	–
CN(C)c1ccc(/C=N/OC(=O)Nc2ccccc2)cc1	inconclusive: 1.41 µM [activator, full curve, poor fit]	–
O=C(CCC1CCCCC1)Nc1ccccc1O	inactive	–
COc1ccc(/C=N/OC(=O)Nc2ccc(Cl)cc2)c(OC)c1	inconclusive: 22.4 µM [activator, single point]	–

SMILES	Potency	activation
COc1ccc(/C=C/C(=O)CCC(=O)O)cc1	inconclusive: 11.2 µM [activator, partial curve, poor fit]	–
COc1ccc2oc(=O)cc(-c3cc4cccc(OC)c4o3)c2c1	inactive	–
Cc1ccc(-c2noc(C3CCCN(C(=O)c4ccccc4Br)C3)n2)o1 (stereo not given)	active: 10 µM	–
CC1OC(CCc2cccc(Cl)c2)Cc2[nH][nH]c(=O)c21 (stereo not given)	inconclusive: 15.8 µM [activator, single point]	–
COc1ccc(-c2csc(Nc3ncccc3C)n2)cc1	inconclusive: 1.26 µM [activator, partial curve, poor fit]	–
CCc1ccc(NC(=O)c2cc(C)on2)cc1	inconclusive: 0.631 µM [activator, full curve, poor fit]	–
Cc1cccc(NC(=O)C(=O)NCc2ccccn2)c1	inconclusive: 11.2 µM [activator, partial curve, poor fit]	–
Cc1nc2ccccc2n1CCCOc1ccccc1	inconclusive: 10 µM [activator, partial curve, poor fit]	–
Cc1ccc(NC(=O)C2CCCN(c3ncccn3)C2)c(C)c1 (stereo not given)	inconclusive: 25.1 µM [activator, partial curve, poor fit]	–
CC1CCN(c2oc(-c3cccc4ccccc34)nc2C#N)CC1	inconclusive: 7.94 µM [activator, partial curve, poor fit]	–
COc1ccc(CCNC(=O)C2CC(c3ccc([N+](=O)[O-])cc3)=NO2)cc1 (stereo not given)	inconclusive: 14.1 µM [activator, single point]	–
Cc1cc(NC(=O)c2cc(C)on2)no1	inactive	–
O=C(Cc1ccccc1[N+](=O)[O-])c1ccc2c(c1)OCO2	inconclusive: 7.94 µM [activator, partial curve, poor fit]	–
O=C(NCc1ccccn1)Nc1cccc(NC(=O)NCc2ccccn2)c1	inconclusive: 20 µM [activator, partial curve, poor fit]	–
CC1CCN(C(=O)Cn2cnc3c(cnn3C(C)(C)C)c2=O)CC1	inconclusive: 2.24 µM [activator, full curve, poor fit]	–
O=C(COc1ccc([N+](=O)[O-])cc1Cl)N1CCc2ccccc21	inconclusive: 2 µM [activator, full curve, poor fit]	–
O=C(CCCc1ccccn1)c1cccc2ccccc12	inconclusive: 2 µM [activator, full curve, poor fit]	–
CCN(C(=O)c1cccc(S(=O)(=O)N(C)C)c1)C12CC3CC(CC(C3)C1)C2	inactive	–
COc1ccccc1/C=C1/C(=O)N(c2ccccc2)N=C1C	inactive	–
COc1ccc(/C=C2\SC(=O)N(CCNC(=O)C3CC4C=CC3C4)C2=O)cc1 (stereo not given)	active: 5.62 µM	–
CCOC(=O)c1cn2ccc(C)cc2n1	inconclusive: 11.2 µM [activator, partial curve, poor fit]	–
O=C(CSc1nnc(C2CCCCC2)o1)Nc1ccccc1Cl	active: 10 µM	–
CCCN(CCC)c1nc(N)nc(-c2cc(Cl)ccc2OC)n1	inactive	–
COc1ccc(CCCC(=O)Nc2ccc(F)cc2)cc1	inactive	–

SMILES	Potency	activation
CC(=O)N=C(N)Sc1nc2ccccc2[nH]1	inconclusive: 2.51 µM [activator, partial curve, poor fit]	–
CN1CCN(CCOc2ccc(-c3ccccc3)cc2)CC1	active: 7.94 µM	–
O=C1c2sc3nc4n(c(=O)c3c2CCC1Br)CCCCC4 (stereo not given)	inconclusive: 12.6 µM [activator, single point]	–
CCN1C(=S)SC(=O)C1=C1C=C(C)N(Cc2ccco2)C(C)=C1	–	inconclusive: 75.7% [activator]
Cc1ccc(NC(=O)c2ccc(OC(=O)COc3cccc(Cl)c3)cc2)cc1	active: 3.55 µM	–
CC(=O)N/C(N)=N/c1nc(=O)c2ccccc2s1	inconclusive: 14.1 µM [activator, partial curve, poor fit]	–
Nn1c(COc2ccccc2)nc2ccccc2c1=O	inconclusive: 12.6 µM [activator, partial curve, poor fit]	–
C(=C\c1ccccc1)/CSc1ccccn1	inconclusive: 11.2 µM [activator, partial curve, poor fit]	–
COc1cccc(-c2nc3nc(C)cc(C)n3c2NCc2ccccc2)c1	inactive	–
COc1ccc(/C=C/C(=O)Oc2cccc(/C=N/NC(=O)c3cccc(F)c3)c2)cc1	inconclusive: 7.08 µM [activator, partial curve, poor fit]	–
COc1cccc(NC2SC(=O)N(c3ccccc3)C2=O)c1 (stereo not given)	inconclusive: 31.6 µM [activator, single point]	–
O=c1c(Cl)c(Nc2cccc(Cl)c2)cnn1-c1nc2ccccc2s1	active: 14.1 µM	–
COc1ccc(Cl)c2c1[nH]c1nc(SCc3ccccn3)nnc12	inconclusive: 2.82 µM [activator, partial curve, poor fit]	–
O=C(CCc1ccc(O)cc1)c1c(O)cc(O)cc1O	inactive	–
O=C(Nc1ccccc1F)c1ccc(-c2cccc([N+](=O)[O-])c2)o1	inconclusive: 35.5 µM [activator, single point]	–
CC(C)CC(=O)Nc1ccc(-c2cn3ccsc3n2)cc1	inconclusive: 1.26 µM [activator, full curve, poor fit]	–
Cc1ccc([C@H]2C[C@@H](O)[C@H](n3cc(COC(=O)c4ccccc4)nn3)CN2C(=O)C2CCCCC2)cc1	inactive	–
COC(=O)CCC(=O)NNC(=O)C1CC1(c1ccccc1)c1ccccc1 (stereo not given)	inactive	–
CCc1ccc(-c2cc3c(N4CCN(c5ccccc5)CC4)nccn3n2)cc1	inconclusive: 11.2 µM [activator, partial curve, poor fit]	–
O=C(Nc1cccc(F)c1)c1ccc(-n2cncn2)c2ccoc12	inconclusive: 2.82 µM [activator, full curve, poor fit]	–
CC(C)C1S/C(=N/N=C/c2ccco2)NC1=O (stereo not given)	inactive	–
CC1=C(C#N)C(/C=N/OCc2ccc(Cl)cc2)CC(=O)N1 (stereo not given)	inconclusive: 6.31 µM [activator, partial curve, poor fit]	–
